Test results taken from the supplement of paper PMC12217912.
This is one part of the list. The full chains were built here from the parent and the listed change. Values near 0.05 are background.

B1: TEV protease; numbered along this chain (parent)
chain: MGESLFKGPRDYNPISSSICHLTNESDGHTTSLYGIGFGPFIITNKHLFRRNNGTLVVQSLHGVFKVKDTTTLQQHLVDGRDMIIIRMPKDFPPFPQKLKFREPQREERICLVTTNFQTKSMSSMVSDTSCTFPSGDGIFWKHWIQTKDGQCGSPLVSTRDGFIVGIHSASNFTNTNNYFTSVPKNFMELLTNQEAQQWVSGWRLNADSVLWGGHKVFMVKPEEPFQPVKEATQL

Variants of: B1
Assay: raw area under fraction-flipped curve 0-4 h after induction (AUC4h, not background-subtracted), DNA-recorder readout of cleavage of the substrate (dimensionless); higher = more cleavage of the substrate by the protease variant
Details: temperature: 34 °C; time window: 0-4 h after rhamnose induction
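Note: Bxb1 expression induced with 0.2% (w/v) L-rhamnose at OD600 near 0.5, cultures sampled hourly, flipped fraction per protease–substrate barcode pair counted by paired-end Illumina sequencing.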

Row | Variant | area with substrate ENDYFQS | area with substrate ENFYFQS | area with substrate ENGYFQS | area with substrate ENMYFQS | area with substrate ENQYFQS | area with substrate ENSYFQS | area with substrate ENVYFQS | area with substrate ENCYFQS | area with substrate ENEYFQS | area with substrate ENHYFQS
1 | R50I | 0.0776 | 0.0787 | 0.0562 | 0.072 | 0.0511 | 0.0606 | 0.0772 | – | – | –
2 | Q198M | 0.0508 | – | 0.0812 | 0.0911 | 0.0596 | 0.0517 | – | 0.0629 | 0.0533 | 0.0627
3 | N175I | 0.067 | 0.0723 | 0.0692 | 0.0602 | 0.0492 | – | 0.0622 | 0.0659 | – | –
4 | C111G | 0.0328 | 0.0543 | 0.0628 | – | 0.0522 | 0.0528 | 0.0839 | – | 0.0719 | –
5 | M122R | 0.0596 | 0.0527 | 0.0517 | – | – | – | 0.0952 | – | – | –
6 | T71K | – | – | 0.071 | – | – | 0.0397 | 0.0463 | – | 0.0501 | 0.0596
7 | T71R | – | – | 0.0317 | – | 0.0742 | 0.0645 | – | – | 0.0579 | 0.0512
8 | V229T | 0.0634 | – | – | – | 0.0658 | 0.0633 | – | 0.0548 | – | –
9 | N186G | 0.0515 | 0.065 | – | – | 0.0474 | – | – | 0.0721 | – | –
10 | E103R | 0.0565 | 0.0538 | 0.0728 | – | 0.0675 | 0.0623 | – | – | 0.0394 | 0.0681
11 | G8Y | – | – | – | – | – | – | – | – | 0.0774 | –
12 | P225Q | – | – | 0.0657 | – | – | – | 0.0816 | 0.0659 | 0.0598 | –
13 | A207H | – | – | – | – | 0.0603 | – | – | 0.0592 | 0.058 | 0.0638
14 | E223V | – | – | – | – | 0.0587 | 0.0525 | 0.0955 | – | 0.0642 | –
15 | V157Q | – | 0.0629 | 0.0598 | 0.0935 | 0.0493 | 0.0478 | 0.0741 | – | 0.0662 | 0.073
16 | V58H | – | – | – | – | 0.0319 | 0.0455 | – | – | – | –
17 | V67Y | – | 0.0739 | 0.0631 | – | 0.0576 | 0.0611 | – | – | – | 0.053
18 | N178G | 0.043 | – | 0.0634 | – | 0.0513 | 0.0524 | – | 0.0711 | – | 0.0624

Row | Variant | area with substrate ENDYFQS | area with substrate ENFYFQS | area with substrate ENGYFQS | area with substrate ENMYFQS | area with substrate ENQYFQS | area with substrate ENSYFQS | area with substrate ENVYFQS | area with substrate ENCYFQS | area with substrate ENEYFQS | area with substrate ENHYFQS
19 | N178E | – | – | – | – | – | – | – | 0.0708 | – | –
20 | T174W | 0.0507 | 0.0563 | 0.0655 | 0.0678 | 0.0588 | 0.0749 | – | – | 0.0713 | 0.0647
21 | Q234A | 0.0587 | – | 0.0688 | – | 0.0555 | 0.0675 | 0.0756 | 0.0653 | 0.0659 | 0.0461
22 | P94F | – | 0.0387 | 0.0668 | – | 0.0568 | 0.0568 | 0.0707 | – | 0.0811 | 0.062
23 | P228G | 0.0643 | – | – | – | 0.0658 | 0.0693 | 0.0869 | 0.0566 | 0.0635 | 0.0856
24 | D161I | 0.0558 | 0.0501 | 0.0892 | – | 0.0565 | 0.0235 | – | 0.0501 | 0.0486 | 0.0469
25 | T159D | – | – | – | – | – | – | – | 0.049 | – | –
26 | T159N | – | 0.0588 | 0.0553 | 0.0859 | 0.0553 | 0.0919 | – | – | 0.0381 | –
27 | F180K | 0.0842 | – | 0.0658 | 0.0541 | 0.0489 | – | 0.051 | – | 0.0394 | –
28 | F180M | 0.0613 | – | – | – | 0.0566 | – | 0.0789 | – | – | –
29 | D91R | 0.0446 | – | – | – | 0.066 | 0.0599 | – | – | – | –
30 | Q197T | – | 0.0551 | 0.0621 | 0.0908 | 0.0583 | 0.0369 | – | – | 0.0532 | –
31 | Q197A | 0.0805 | 0.0355 | – | – | 0.0589 | 0.0637 | 0.065 | – | 0.0531 | 0.0597
32 | K68P | 0.0591 | 0.0557 | – | – | 0.0522 | 0.0466 | 0.0823 | – | 0.0648 | 0.0593
33 | L5V | – | 0.0682 | – | – | 0.0648 | 0.0629 | – | – | 0.0542 | –
34 | F218W | 0.0609 | – | 0.044 | 0.0572 | 0.0646 | 0.0574 | – | 0.0711 | 0.063 | –
35 | N206Y | 0.0612 | 0.0562 | 0.0633 | – | 0.0824 | – | 0.0665 | – | 0.0633 | –

Same assay, conditions: temperature: 34 °C; time window: 0-4 h after rhamnose induction

Row | Variant | area with substrate ENIYFQS | area with substrate ENNYFQS | area with substrate ENPYFQS | area with substrate ENRYFQS | area with substrate ENTYFQS | area with substrate ENKYFQS | area with substrate ENWYFQS | area with substrate ENYYFQS
36 | Q198M | 0.0942 | 0.067 | 0.0589 | 0.051 | 0.0577 | – | – | –
37 | N175I | 0.0731 | 0.0706 | – | 0.0637 | – | 0.0632 | – | –
38 | C111G | – | 0.061 | 0.0576 | – | – | 0.0717 | 0.0584 | –
39 | M122R | 0.142 | – | – | 0.052 | 0.0598 | – | 0.0448 | 0.0657
40 | T71K | 0.114 | 0.0873 | – | – | – | – | – | 0.0667
41 | T71R | – | 0.0572 | 0.0615 | – | 0.0649 | 0.0623 | – | 0.0517
42 | V229T | 0.102 | – | – | – | 0.0579 | – | 0.0411 | –
43 | E103R | 0.0839 | – | 0.0557 | 0.0636 | 0.0642 | 0.0603 | – | –
44 | G8Y | – | – | – | – | – | 0.0546 | – | –
45 | P225Q | 0.0985 | 0.0659 | – | 0.0443 | 0.0637 | – | – | –
46 | A207H | – | – | – | 0.0364 | 0.0703 | – | – | –
47 | E223V | – | 0.0436 | – | 0.0578 | 0.0553 | – | – | –
48 | V157Q | 0.1 | – | 0.0512 | – | 0.0476 | 0.0713 | – | –
49 | V58H | – | – | – | – | – | – | – | 0.0412
50 | V67Y | – | – | 0.053 | 0.0532 | – | – | 0.0486 | –
51 | N178G | – | – | 0.053 | 0.0609 | 0.0623 | – | – | –

Row | Variant | area with substrate ENIYFQS | area with substrate ENNYFQS | area with substrate ENPYFQS | area with substrate ENRYFQS | area with substrate ENTYFQS | area with substrate ENKYFQS | area with substrate ENWYFQS | area with substrate ENYYFQS
52 | N178E | – | 0.0661 | – | 0.0627 | – | 0.0604 | – | –
53 | T174W | – | 0.0593 | 0.0533 | – | 0.0522 | 0.0647 | – | –
54 | Q234A | – | – | – | 0.0576 | 0.0725 | – | 0.0571 | –
55 | P94F | – | 0.0611 | – | – | 0.0628 | 0.0674 | – | –
56 | P228G | – | 0.08 | – | – | 0.0872 | – | – | –
57 | D161I | 0.0369 | – | 0.0446 | 0.0436 | 0.0534 | 0.0531 | – | –
58 | T159N | – | 0.0569 | – | – | – | – | – | –
59 | F180K | 0.0599 | 0.0585 | – | – | 0.0574 | – | – | –
60 | F180M | – | 0.067 | – | 0.005 | 0.0383 | 0.043 | – | 0.034
61 | D91R | 0.139 | – | 0.0653 | – | – | 0.0658 | – | 0.0508
62 | Q197T | – | 0.0536 | – | – | – | – | – | –
63 | K68P | 0.129 | 0.0667 | – | 0.0587 | – | – | – | 0.0547
64 | L5V | – | – | 0.0697 | 0.0607 | 0.0569 | – | – | –
65 | F218W | – | – | 0.0729 | 0.059 | – | – | – | 0.0587
66 | N206Y | 0.0754 | 0.0527 | – | – | 0.0575 | 0.053 | – | –
